Measurements published in the BET-seq Pho4 binding data (Le et al. 2018).
Some of the results follow. The energies were worked out here from pooled read counts, against the library average; single values are noisy.

biological target: T1, Pho4 (S. cerevisiae) (UniProt P07270); assay: relative binding free energy (BET-seq); higher = weaker binding; details: reference: library average
T1 sequence: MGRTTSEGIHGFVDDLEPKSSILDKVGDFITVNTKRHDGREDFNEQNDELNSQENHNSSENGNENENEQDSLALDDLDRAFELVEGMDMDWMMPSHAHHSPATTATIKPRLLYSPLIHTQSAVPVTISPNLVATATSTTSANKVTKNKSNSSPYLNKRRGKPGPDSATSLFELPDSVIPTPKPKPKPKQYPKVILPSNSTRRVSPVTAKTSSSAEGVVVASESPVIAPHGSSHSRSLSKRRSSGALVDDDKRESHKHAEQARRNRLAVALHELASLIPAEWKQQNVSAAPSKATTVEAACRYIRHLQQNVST

Sequence | relative binding free energy [kcal/mol]
ATGGACACGTGTATTG | -0.02
AAAGGCACGTGGGCGT | -0.38
TATCTCACGTGAAGGT | 0.53
TTGAGCACGTGAGGTC | 0.28
GATGTCACGTGTTTTA | 0.09
TAGATCACGTGGTTGT | 0.04
TAGGTCACGTGAGGGG | 0.2
CTGGTCACGTGCTGTG | -0.06
TAGGCCACGTGACGGT | 0.04
GTTGGCACGTGACTTA | -0.02
GGTGGCACGTGGGGAA | -0.11
AGTACCACGTGGGAGG | -0.02
TGGAACACGTGTTATG | -0.03
AAAGTCACGTGTAAGT | 0.35
TTTCGCACGTGGGGGA | -0.27
ACTTGCACGTGCGGGG | -0.08
ATGTTCACGTGGGGCT | 0.16
CTTGTCACGTGTCGGT | 0.08
TTGGGCACGTGCACGG | -0.22
GAGCGCACGTGTGGGC | 0.02
GGGCTCACGTGTGTTA | 0.11
TGAAGCACGTGGTGTG | -0.2
GTGTGCACGTGTATGT | 0.05

Sequence | relative binding free energy [kcal/mol]
ATAATCACGTGAGTAG | 0.4
TGATCCACGTGGTTGA | -0.06
GGGGGCACGTGAAGCA | 0.04
ATGTACACGTGTTTGC | -0.01
CGGGGCACGTGGCCGG | -0.31
ATGGGCACGTGCGATT | 0.01
GGGGTCACGTGATTGT | 0.36
GGTCTCACGTGGTCAG | 0.19
TGATCCACGTGTGTGT | 0.06
ATGAGCACGTGATATA | 0.17
GGGACCACGTGTCTGG | 0.09
TCGGGCACGTGTAATG | -0.05
TATGTCACGTGTATGT | 0.07
GGCAACACGTGTGTGA | 0.13
GAATTCACGTGAAGGG | 0.46
GGAGGCACGTGTCGTT | -0.05
TTACTCACGTGTATTT | 0.25
GGGTCCACGTGTTCGG | -0.04
GGCAACACGTGCTGGG | -0.04
GTTTTCACGTGCGAGT | 0.35
GTGGGCACGTGAATAG | 0.21
TGTTTCACGTGCGCTT | 0.09
AATGACACGTGGGTCG | 0.01

Sequence | relative binding free energy [kcal/mol]
GTCAGCACGTGTTGAT | 0.05
GGTTTCACGTGTGACG | 0.37
TGGTTCACGTGTTGCA | 0.16
CATCGCACGTGAGGGT | 0.17
TGGTGCACGTGGGACT | -0.2
AATGTCACGTGTGGGT | 0.15
ATTGGCACGTGAGTCT | 0.02
CGGTGCACGTGAGGTC | 0.24
CGGACCACGTGGGGGC | -0.13
GTGCACACGTGTAAGT | 0.04
CATTGCACGTGGGGTT | -0.09
CGGTTCACGTGGTCTT | 0.34
AGTTTCACGTGGCGTA | 0.17
ATGTGCACGTGAGGTT | 0.26
TTTAGCACGTGTCCGG | -0.08
GTGGGCACGTGATAAG | 0.04
TTGGACACGTGGGACG | -0.01
ATAGGCACGTGTGAAG | -0.02
ACGTTCACGTGAGTTT | 0.32
GAGGACACGTGGTGTA | 0.03
TCTGGCACGTGAATGT | 0.13
GTAGTCACGTGGATGA | 0.18
TTGAACACGTGTGGAC | 0.23

Sequence | relative binding free energy [kcal/mol]
TTGGGCACGTGACTGT | -0.09
AGTGGCACGTGACAGT | -0.17
GTAGACACGTGGGGTT | 0.04
ATATTCACGTGTGTGA | 0.17
AGTCTCACGTGGCGGA | 0.16
GGTTGCACGTGGTGGT | 0.06
AACTTCACGTGTAGTT | 0.29
TGTTACACGTGCGAGG | -0.08
AAGATCACGTGTTGAT | 0.15
TGTATCACGTGCGATG | 0.24
TGTTGCACGTGGGAAG | -0.18
GCAGGCACGTGTGGGC | 0.03
TTGAACACGTGTTACT | 0.15
GGGATCACGTGTGAAG | 0.25
TTGAACACGTGTGCGG | 0.13
GATAGCACGTGTATTT | 0.05
TTCGTCACGTGTGGGC | 0.31
AATTTCACGTGAGTTC | 0.47
GTATGCACGTGGACGG | -0.03
TGTATCACGTGTTTCA | 0.07
TATTACACGTGTTATT | 0.02
CTGAGCACGTGTAGGG | -0.17
CTGAGCACGTGGAGGG | -0.21

Sequence | relative binding free energy [kcal/mol]
AGGACCACGTGTTTGT | 0
ATCAGCACGTGTTGTG | -0.04
GGTGTCACGTGAATGC | 0.32
GGATACACGTGTGTTG | 0.13
GATTTCACGTGCGTGT | 0.21
GGGTCCACGTGGATTT | 0.17
AGGTTCACGTGTAGTT | 0.36
CAACGCACGTGGGGGG | -0.33
AGAAACACGTGGGTAG | -0.18
GTTGACACGTGTACTT | 0.03
GTTGGCACGTGGGTTG | -0.19
AGGTTCACGTGTCCGT | 0.18
AATGTCACGTGTGAAT | 0.1
GAATGCACGTGTGTGG | 0.13
ATTAGCACGTGTTTTT | 0.04
GTGGGCACGTGGAGAA | -0.08
CTTGTCACGTGTATAT | 0.13
TGGTACACGTGTTATT | 0.17
TAAGACACGTGAAGGT | 0.17
GTGTTCACGTGAGTGT | 0.46
TCAGTCACGTGAATGT | 0.22
GTACTCACGTGGGAGG | 0.15
GGTGCCACGTGGGGAT | -0.15
